Source: publication PMC7558026, “Exploring and applying the substrate promiscuity of a C-glycosyltransferase in the chemo-enzymatic synthesis of bioactive C-glycosides” (Nature Communications, 2020)

Target: T1, AbCGT V183P (Aloe vera, UniProt A0A7G9P699, V183P)
T1 sequence (A0A7G9P699 1-470 V183P): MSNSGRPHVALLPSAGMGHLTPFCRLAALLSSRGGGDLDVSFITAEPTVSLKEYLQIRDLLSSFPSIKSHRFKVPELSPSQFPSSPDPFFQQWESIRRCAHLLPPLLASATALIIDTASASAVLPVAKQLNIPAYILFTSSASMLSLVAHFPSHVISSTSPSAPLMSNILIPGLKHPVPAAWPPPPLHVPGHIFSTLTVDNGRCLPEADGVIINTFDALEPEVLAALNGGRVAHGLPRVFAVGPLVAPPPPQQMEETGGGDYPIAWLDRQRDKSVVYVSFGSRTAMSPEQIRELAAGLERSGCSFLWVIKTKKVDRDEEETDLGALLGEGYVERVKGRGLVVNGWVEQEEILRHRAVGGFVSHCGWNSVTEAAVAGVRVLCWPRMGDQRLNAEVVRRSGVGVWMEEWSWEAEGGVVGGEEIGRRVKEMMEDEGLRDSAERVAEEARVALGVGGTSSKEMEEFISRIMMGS
Assay type: biochemical, Aloe barbadensis
Experimental: The reaction mixture contained 0.5 mM sugar donors (1.0 mM for di-glycosylation), 0.25 mM aglycons, 50 mM Tris-HCl (pH 7.4), and 50‒100 μg of purified AbCGT in a final volume of 100 μL. Due to the instability of some acceptors in the buffer of pH 11.0, the reactions were performed under the physiological conditions (pH 7.4, 30 °C) to compare the catalytic activities of AbGT27 with different substrates under the same conditions. The reactions were performed at 30 °C for up to 12 h and terminated by the addition of 200 μL of ice-cold methanol. Subsequently, samples were centrifuged at 15,000 × g for 30 min to collect the supernatant, and aliquots were analyzed by HPLC-UV/ESIMS. HPLC analysis was performed on a Shiseido CAPCELL PAK C18 MG III column (250 mm × 4.6 mm I.D., 5 μm, Shiseido Co., Ltd., Japan) at a flow rate of 1 mL min^‒1. The mobile phase was a gradient elution of solvents A (0.1% formic acid aqueous solution) and B (methanol). The gradient programs were used for the analysis of the reactions (Supplementary Table 6). The conversion rates of the enzyme reactions were calculated from peak areas of glycosylated products and substrates as analyzed by HPLC. To facilitate inferential statistical analysis, three parallel assays were routinely performed; the means ± SD from triplicate analyses are reported here.
Site-saturation mutagenesis of AbCGT at residue 183 was performed by PCR using pET28a-AbCGT as a template and the corresponding degenerate primers, which are listed in Supplementary Table 5. PCR products were purified and transformed into Trans1-T1 (DE3) E. coli. The sequences of pET28a-AbCGT mutants were confirmed by sequencing, and transformed into Transetta (DE3) E. coli for heterologous expression following protein purification.

| SMILES | V183P/yield of C-glycoside(%) (reaction-1) | V183P/yield of O-glycoside(%) (reaction-1) | V183P/yield of C-glycoside(%) (reaction-2) | V183P/yield of O-glycoside(%) (reaction-2) | V183P/yield of C-glycoside(%) (reaction-3) | V183P/yield of O-glycoside(%) (reaction-3) |
| --- | --- | --- | --- | --- | --- | --- |
| CC(=O)c1ccccc1O [Compound 1] | 0% | 0% | 0% | 0% | 0% | 0% |
| CC(=O)c1cccc(O)c1 [Compound 2] | 0% | 0% | 0% | 0% | 0% | 0% |
| CC(=O)c1ccc(O)cc1 [Compound 3] | 0% | 0% | 0% | 0% | 0% | 0% |
| CC(=O)c1cc(O)cc(O)c1 [Compound 4, 3,5-dihydroxyacetophenone] | 0% | 1.6% | 0% | 2.1% | 0% | 2% |
| CC(=O)c1c(O)cccc1O [Compound 5] | 8% | 0% | 9.2% | 0% | 8.6% | 0% |
| CC(=O)c1ccc(O)cc1O [Compound 6, 2,4-dihydroxyacetophenone] | 14.5% | 1.8% | 13.8% | 1.4% | 13.6% | 1.5% |

Read-outs that look alike come from different tables or passages of the source.
